Some of the results follow.
T1: UNK ZnF1-6 (called full-length) (human, UniProt Q9C0B0 30-357)
T1 sequence: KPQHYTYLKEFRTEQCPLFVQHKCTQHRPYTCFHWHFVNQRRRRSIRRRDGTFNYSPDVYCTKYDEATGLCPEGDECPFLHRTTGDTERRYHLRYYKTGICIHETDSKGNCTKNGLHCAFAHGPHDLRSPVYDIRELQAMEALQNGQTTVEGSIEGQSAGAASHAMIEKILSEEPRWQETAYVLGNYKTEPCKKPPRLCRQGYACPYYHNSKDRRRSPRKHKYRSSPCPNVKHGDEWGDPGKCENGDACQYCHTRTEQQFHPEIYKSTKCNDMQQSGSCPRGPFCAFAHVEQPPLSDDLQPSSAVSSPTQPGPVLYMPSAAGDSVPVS

B1: chr2:224470697:224470798:-|3pUTR|ENSG00000036257|msi1|total|mutant (ssRNA)
RNA: GGGAGUUCUACAGUCCGACGAUCUGUGACAAACUAAAGUUAAUACAUGAAGCAUUGCAAUAUGGAAUUUUGCACAUUUUUGUCCGCUUUACAUUAUUUGCUGAUACCAACUUUUGGCCGGAAGGAAAACAGGGAAGGUGAUUGCAACAGAGGAUUGAGCAUCA
B2: chr20:4701031:4701132:+|3pUTR|ENSG00000171867|msi1|total|mutant (ssRNA)
RNA: GGGAGUUCUACAGUCCGACGAUCCACCGUUUCUGUAAUUGGCUUUUGAAUCAAAGAACCGGGAGACAAUCUAAAAAAUAUCUCCGGUUGGAGAUGACAGAAAUAUGAUUGAUUUGAAGUGGAAAAAGAAAUUCUGUUAAUGUUCAACAGAGGAUUGAGCAUCA
B3: ENSG00000136451:be:win_2201|3pUTR|ENSG00000136451|bound_else_gene|NA|bound_elsewhere_windowed (ssRNA)
RNA: GGGAGUUCUACAGUCCGACGAUCAUUGUGACCUGAUAUUUGGAGAUGUAAAUAUUGCUCAGCAUAUUAAUCCCGAUGGAAUAUAGCAUUGUAGUUGACUUUUUAAAAAAAAAAAAAAUUUAAAAAAAAUCUACAAAUUGUGUUCAACAGAGGAUUGAGCAUCA
B4: chr2:219567275:219567376:-|CDS|ENSG00000124006|msi1|total|mutant (ssRNA)
RNA: GGGAGUUCUACAGUCCGACGAUCUGUGUGCCCUCCGAGGGUGACUACCGCUUCCGCAUCUGCACAGUCAGCGGACAUGGCCGCCGUCCCCACGUGGUGUUCCACGGUUCUGCUCACCUUGGUGAGUUGGUCCUGCCAGACCCACAACAGAGGAUUGAGCAUCA
B5: chr1:151048051:151048152:+|CDS|ENSG00000143443|unk|total|mutant (ssRNA)
RNA: GGGAGUUCUACAGUCCGACGAUCGACCGCCUGGCUGGACCAGCGGCUGCCGAGCUCUUGGCCGCCACGGUGUCCACCGGCUUCCGCCGGUCGUCCGCCAUUAACGAGGAGGAUGGGUCUUCAGAAGAGGGGGUUGUGAUUAAUCAACAGAGGAUUGAGCAUCA
B6: chr7:100033925:100034026:+|CDS|ENSG00000106261|msi1|total|mutant (ssRNA)
RNA: GGGAGUUCUACAGUCCGACGAUCCAGAGCUCGGACCUCACCAAGCAUCAGAGAAUUCACACGGGGGAGAAACCCUAUGAAUGCCGUGAAUGUGGAAAAGCUUUCAACCGAAACUCAUACCUGAUUUUGCAUCGGAGAAUUCACCAACAGAGGAUUGAGCAUCA
B7: chr6:108211900:108211976:-|3pUTR|ENSG00000112335|msi1_unk|total|mutant (ssRNA)
RNA: GGGAGUUCUACAGUCCGACGAUCGUUGACAAGAAGUUAAUUUGCUUCCGUAAAAAUCCCUCAUUCCAGCCUUUCUAUAUAAACCGCUCUUUCUUGCUGUUUUAAUGUGGUGCACACUACCGCCUCACAAACCUGUUAUUCCAGCAACAGAGGAUUGAGCAUCA
B8: chr1:53952023:53952124:+|CDS|ENSG00000116212|msi1|FALSE|unique (ssRNA)
RNA: GGGAGUUCUACAGUCCGACGAUCUACAUGCGAGAAAAUGGGCAGCUGCACAUGGUCAAUCUGGCUCUGGAUGGUGUCAGGAGUAGCCUGCAGAAGCCAAGGCCUUUCAGACUGUUCCCCAAAGGCUUUUCUGUGGAGCUUUGCCAACAGAGGAUUGAGCAUCA
B9: ENSG00000124766:be:win_1851|3pUTR|ENSG00000124766|bound_else_gene|NA|bound_elsewhere_windowed (ssRNA)
RNA: GGGAGUUCUACAGUCCGACGAUCAGAGACUUGAAGGAGUCUCCCCCUUCCUGCAUCACCACCUUGGUUUUGUUUUAUUUUGCUUCUUGGUCAAGAAAGGAGGGGAGAACCCAGCGCACCCCUCCCCCCCUUUUUUUAAACGCGCAACAGAGGAUUGAGCAUCA
B10: chr1:66363429:66363538:+|CDS|ENSG00000184588|unk|total|mutant (ssRNA)
RNA: GGGAGUUCUACAGUCCGACGAUCAGACCUCCUAAAGACAUUCAGAAUCUCAUCUGACACAUUUAUAACCUACAUGAUGACUUCCGAAGACCAUUACCAUUCUGACGUGGCAUAUCACAACAGCCUGCACGCUGCUGAUGCCGCCAACAGAGGAUUGAGCAUCA
B11: chr1:42696720:42696786:+|CDS|ENSG00000065978|msi1_unk|FALSE|overlapping (ssRNA)
RNA: GGGAGUUCUACAGUCCGACGAUCCCAGUUCAAGGCAGUAAAUAUGCAGCAGACCGUAACCAUUAUAGACGCUAUCCACGUCGUAGGGGUCCUCCACGCAAUUACCAGCAAAAUUACCAGAAUAGUGAGAGUGGGGAAAAGAACCAACAGAGGAUUGAGCAUCA
B12: chr2:96252317:96252350:-|3pUTR|ENSG00000135956|msi1_unk|total|mutant (ssRNA)
RNA: GGGAGUUCUACAGUCCGACGAUCGUGUCCCCUGCUGAGCUGAAAAGGAAAUGGAUUCCAAUCUCUUCCAACCUUUAAGGUGACCGACCGUUUGAGCAAGACUGGAGAAUGGACAACACUAUGAAGCUGUGGCCCGAAAGGGACCAACAGAGGAUUGAGCAUCA
B13: chrX:56565067:56565173:+|CDS|ENSG00000188021|unk|FALSE|unique (ssRNA)
RNA: GGGAGUUCUACAGUCCGACGAUCAGAAGCAUGAUGCAGUCGCUGAGCCAGAAUCCAGAUUUGGCUGCACAGAUGAUGCUGAAUAGCCCGCUGUUUACUGCAAAUCCUCAGCUGCAGGAGCAGAUGCGGCCACAGCUCCCAGCCCAACAGAGGAUUGAGCAUCA
B14: chr14:55188946:55189174:-|CDS|ENSG00000126787|unk|FALSE|unique (ssRNA)
RNA: GGGAGUUCUACAGUCCGACGAUCAUUGCUCAUAGGAAAUCACUGUCUCAGAAAGAAAAUAGACAUAAGGAAUACGAACGAAAUAGACACUUUGGUUUGAAAGAUGUAAACAUUCCAACCUUGGAAGGUAGAAUUCUUGUUGAACAACAGAGGAUUGAGCAUCA
B15: chr6:43186014:43186115:+|CDS|ENSG00000112659|msi1|FALSE|unique (ssRNA)
RNA: GGGAGUUCUACAGUCCGACGAUCCUGCUUUUCUCCUUGGUGAAGCGCUACCUUUGUGUCACGUCCCUCCUGGAUCAGCUGAAUAGCAGUCCAGAGCUGGGAGCUGGAGACCAAAGCUCCCCAUGUGCCACAAGAGAGAAAAGCCAACAGAGGAUUGAGCAUCA
B16: chr22:36489384:36489485:-|3pUTR|ENSG00000100350|msi1|total|mutant (ssRNA)
RNA: GGGAGUUCUACAGUCCGACGAUCGUGUCACUUGCCACACACUGCCUCAACCUCCCCGCCCCAUUUUCAGCAGGGUUUGGGCUCCGCUACAGAGCCCAAGAGGGUCAGCCCUGCUUAUCAUCACCGGCCCAGCAGGCUGAUCUCCAACAGAGGAUUGAGCAUCA
B17: chr11:46743636:46743700:-|3pUTR|ENSG00000175216|msi1_unk|total|mutant (ssRNA)
RNA: GGGAGUUCUACAGUCCGACGAUCUUGUAAAAUUGUCCUAAUCUUUCCCCGCUUUUUAACCGUUAAUAUCCGAAACUCUUUAACCGUUUUCCUUUCAGUUUGUGAGCUCUUCUCUGUCGCCCUGAAGGGUCACUGUAUUCUGUACAACAGAGGAUUGAGCAUCA
B18: chrX:12823584:12823685:+|3pUTR|ENSG00000101911|unk|FALSE|unique (ssRNA)
RNA: GGGAGUUCUACAGUCCGACGAUCUGACUUAAAGGUAAUCAUUUCAGCUAAGAUUAAAUUUAAAGCCUAAGAAUGUAUAGAGCUAGUUUUAAAAUAAUGAUCUCAGAUUUUUAAAAAGGAUAUAGGAACCUGCAUUGUCAUUCUCAACAGAGGAUUGAGCAUCA
B19: chr1:228098150:228098251:+|3pUTR|ENSG00000143761|msi1_unk|FALSE|overlapping (ssRNA)
RNA: GGGAGUUCUACAGUCCGACGAUCGCACCGUGCUGUAAAUGUGGCAGACGCAGCCUGCGGCCAGGCUUUUUAUUUAAUGUAAAUAGUUUUUGUUUCCAAUGAGGCAGUUUCUGGUACUCCUAUGCAAUAUUACUCAGCUUUUUUCAACAGAGGAUUGAGCAUCA
B20: chr13:52475664:52475769:+|3pUTR|ENSG00000136108|msi1|total|mutant (ssRNA)
RNA: GGGAGUUCUACAGUCCGACGAUCGCGUCCCUUGGACUGCCUGUUGAUUGAUGGAAAGUGUCUGCACUGACACUUUUCGUCAGCCGUCUGCCGUUUCGUGGCCUCUUUUGAUUAUAACUGGGGUCACCAAGAAGGUUUACUUAACAACAGAGGAUUGAGCAUCA
B21: chr12:122271799:122271900:-|3pUTR|ENSG00000130779|msi1|total|mutant (ssRNA)
RNA: GGGAGUUCUACAGUCCGACGAUCGUAUAAAACACCUAAAUAACCAAUCUACAAUCUCCCUUCACAAGUUUUUUUACUGUUUUCCGAUGAAUGUACGAUGAGAAAUUCAACGUUAAUAAUUCUGGAUUUUCUUAUCACAAAAAACAACAGAGGAUUGAGCAUCA
B22: chr15:65058426:65058617:-|CDS|ENSG00000103710|control|control|control (ssRNA)
RNA: GGGAGUUCUACAGUCCGACGAUCCUGAACUGGGCCCAUGCCUUCCUGGUGGUGUACAGCGUCGACAGCCGCCAGAGCUUUGAUAGCAGCAGCAGCUACCUGGAGCUGCUUGCCUUGCACGCGAAGGAGACACAGCGCAGCAUCCAACAGAGGAUUGAGCAUCA

Target: T1, UNK ZnF1-6 (called full-length)
Experiment: nsRBNS (natural sequence RNA bind-n-seq); RBNS binding buffer (assumed for nsRBNS): 25 mM Tris pH 7.5, 150 mM KCl, 3 mM MgCl2, 0.01% Triton X-100, 500 ug/ml BSA, 20 U/ml SUPERase-In, 4 C; UNK is unkempt and MSI1 is Musashi-1; names of the RNAs are library labels; protein concentration not given here; high values mean tight binding

Binder	binding signal [enrichment R]
B1	0.518
B2	0.371
B3	0.637
B4	0.577
B5	0.747
B6	0.595
B7	0.635
B8	0.626
B9	0.704
B10	0.532
B11	0.804
B12	0.731
B13	0.515
B14	0.752
B15	0.496
B16	0.813
B17	0.543
B18	0.863
B19	1.39
B20	0.342
B21	0.721
B22	0.597
